Test results: PubChem BioAssay AID463173 (ICCB-Longwood Screening Facility, Harvard Medical School, 2010)
The whole screen tested about 52,000 compounds, of which about 1,700 (3.3%) were called active. Rule as the data show it: active = survival mostly below about 52% (no sharp cut-off); inactive = mostly above about 56%. This is one part of the list.

These molecules were tested on Wild type (assay: growth inhibition of S. aureus wild type versus tarO mutant, primary screen, teichoic acid synthesis inhibitors, RN4220, OD600 (AID 463173)). Conditions: S. aureus RN4220 wild type/DeltatarO growth, OD600, 18 h, hits give low values, screened at 18.75 µg/mL (by protocol).
With `CCOC(=O)c1ccc(NC(=O)CN2C(=O)COc3ccc(Cl)cc32)cc1` the survival was inactive: 72%.
`CC1=C(C(=O)OC2CCCC2)C(c2ccccc2Cl)CC(=O)N1` (stereo not drawn) was tested, and the survival was inactive: 76%.
With `Cc1ccc(Cl)cc1N1CCN(C(=O)C2CCN(Cc3nc(-c4ccc(Cl)cc4)oc3C)CC2)CC1` the survival was active: -4%.
With `CC(C)(C)OC(=O)N1CCC(c2c(C(=O)NC3CCCCC3)cnn2-c2cccc(Cl)c2)CC1` the survival was inactive: 66%.
`Cn1nccc1C(=O)NCc1ccc2c(c1)CCN2C(=O)c1ccccc1` was tested, and the survival was inactive: 57%.
`CCOc1ccccc1NC(=O)Cn1nnc(C(=O)Nc2ccc(C)c(C)c2)c1N` was tested, and the survival was inactive: 59%.
With `Cc1c(C(=O)N2CCC(C)CC2)c(S(=O)(=O)N2CCN(c3ccc(Cl)cc3)CC2)c(C)n1C` the survival was inactive: 74%.
With `COc1ccc(N2CCN(C(=O)c3oc4ccccc4c3NC(=O)c3ccccc3OC)CC2)cc1` the survival was inactive: 129%.
For `COc1ccc(-c2nc3sc(CCNC(=O)C(=O)Nc4c(C)cccc4C)c(C)n3n2)cc1`, the survival was inactive: 112%.
For `CC1CCCN(CCCNC(=O)CN2C(=O)CSc3ccc(S(=O)(=O)N4CCOCC4)cc32)C1` (stereo not drawn), the survival was inactive: 128%.
`Cc1cc(=O)[nH]c(SCC(=O)N(c2ccccc2)c2ccccc2)n1` was tested, and the survival was inactive: 103%.
With `O=C(Cn1c(=O)oc2cc(S(=O)(=O)NC3CCCC3)ccc21)Nc1ccc(F)c(F)c1` the survival was inactive: 70%.
In the case of `Cc1ccc(Cl)cc1N1CCN(S(=O)(=O)c2cc3[nH]c(=O)c(=O)[nH]c3cc2C)CC1`, the survival is reported as inactive: 93%.
For `COC(=O)c1cc2nc(C)cc(C(F)(F)F)n2n1`, the survival was inactive: 104%.
With `CCC(Oc1ccccc1)C(=O)Nc1nccs1` (stereo not drawn) the survival was inactive: 127%.
In the case of `CN1C(=O)Cc2cc(S(=O)(=O)NCCc3ccccc3)ccc21`, the survival is reported as inactive: 124%.
With `Cc1cccc(C)c1NC(=O)CS(=O)CC(=O)NC1CCCc2ccccc21` (stereo not drawn) the survival was inactive: 107%.
`COc1ccc(NC(=O)C2CCCN2S(=O)(=O)c2ccc3nc(-c4ccccc4)[nH]c3c2)cc1` (stereo not drawn) was tested, and the survival was inactive: 78%.
For `O=C(CCn1c(=O)c2cccn2c2cccnc21)N1CCN(c2cccc(Cl)c2)CC1`, the survival was inactive: 46%.
`Cc1cccc(-c2nc(SCC(=O)Nc3ccc4c(c3)OCO4)c(-c3ccccc3)[nH]2)c1` was tested, and the survival was inactive: 58%.
With `COCCCNC(=O)Cn1cnc2sc(C)c(S(=O)(=O)N3CCN(c4ccccc4OC)CC3)c2c1=O` the survival was inactive: 76%.
With `CCOC(=O)c1cc(-c2ccc(C)cc2)n(CCC(=O)Nc2ccc(OC)c(OC)c2)c1C` the survival was inactive: 71%.
`CCN1CCN(C(=O)c2ccc3c(c2)N(Cc2cccc(F)c2)C(=O)c2ccccc2S3)CC1` was tested, and the survival was inactive: 100%.
With `COc1ccc(CCNC(=O)c2ccc3c(c2)N(Cc2ccc(Cl)cc2)CCS3)c(OC)c1` the survival was inactive: 87%.
In the case of `CCCCCN1C(C(=O)c2ccccc2)=C(NC(=O)c2ccccc2Cl)c2ccccc2S1(=O)=O`, the survival is reported as inactive: 72%.
`CC(=O)c1ccc(N2CCN(S(=O)(=O)c3ccc(-c4cc(C)no4)s3)CC2)cc1` was tested, and the survival was active: -6%.
With `Cc1cc(C)c(S(=O)(=O)n2cnc(C)c2)c(C)c1` the survival was inactive: 74%.
For `COc1ccc2[nH]c(=O)c(CN(CCCN3CCOCC3)C(=O)NCc3ccccc3)cc2c1`, the survival was inactive: 101%.
With `COC(=O)c1c(NC(=O)COc2cc(C)ccc2C(C)C)sc2c1CCC(C)C2` (stereo not drawn) the survival was inactive: 66%.
For `O=C1C(=O)N(c2cccnc2)C(c2ccc(O)cc2)/C1=C(\O)c1ccc(Br)cc1` (stereo not drawn), the survival was inactive: 102%.
For `Cc1ccc2nc3c(cc(C(=O)NC4CCCCC4)c(=N)n3C(C)C)c(=O)n2c1`, the survival was inactive: 75%.
For `CCOC(=O)c1ccc(NC(=O)CC2NCCNC2=O)cc1` (stereo not drawn), the survival was inactive: 87%.
With `CCn1c2ccccc2c2cc(NC(=O)COc3ccc(C)c(C)c3)ccc21` the survival was inactive: 128%.
`CCOC(=O)C1CCN(S(=O)(=O)c2ccc3c(c2)NC(=O)C(C)C(=O)N3)CC1` (stereo not drawn) was tested, and the survival was inactive: 114%.
In the case of `Cc1ccc(-c2ccc(=O)n(CC(=O)NCc3ccc(F)cc3)n2)cc1`, the survival is reported as inactive: 83%.
With `COc1ccc(-c2nc3n(n2)C(=O)CC(c2ccc(Cl)cc2)S3)cc1` (stereo not drawn) the survival was inactive: 78%.
In the case of `CCN(CC)C(=O)Oc1ccc(Cl)c2cccnc12`, the survival is reported as inactive: 107%.
For `N#Cc1cccc(NC(=O)C2CCN(c3ncccn3)CC2)c1`, the survival was inactive: 82%.
In the case of `CCOc1cc(C(=O)Nc2ccc(-c3nc4ncccc4o3)cc2C)cc(OCC)c1OCC`, the survival is reported as inactive: 95%.
In the case of `CCS(=O)(=O)CCSc1nc(-c2ccc(Br)cc2)cc(-c2ccccc2)c1C#N`, the survival is reported as inactive: 99%.
For `CC1=C(C(=O)Nc2ccccc2C)C(c2cccnc2)n2nc(SCc3ccccc3F)nc2N1` (stereo not drawn), the survival was inactive: 81%.
In the case of `Cc1cc(C)nc(NCCS)n1`, the survival is reported as inactive: 102%.
In the case of `COC(=O)c1ccc(NC(=O)C2CCN(C(=O)c3ccc(F)cc3)CC2)cc1`, the survival is reported as inactive: 69%.
For `O=C(O)CCc1ccc(-c2ccccc2)n1CC(=O)Nc1ccccc1C(F)(F)F`, the survival was inactive: 77%.
`COc1ccccc1CNC(=O)CCCCn1c(=O)c2ccccc2n(CC(=O)Nc2cc(Cl)ccc2C)c1=O` was tested, and the survival was inactive: 91%.
`O=c1c2[nH]c3ccccc3c2nc(SCc2cccc(F)c2)n1-c1ccccc1` was tested, and the survival was inactive: 53%.
With `COc1ccc2c(c1)c1c(c(=O)n(-c3ccccc3C)c(=O)n1CC(=O)Nc1c(C)cccc1C)n2C` the survival was inactive: 77%.
In the case of `Cc1ccccc1Nc1nn2c(=O)c3ccc(C(=O)N4CCCC(C)C4)cc3nc2s1` (stereo not drawn), the survival is reported as inactive: 78%.
With `O=C(CCc1ccccc1)NC1CC(=O)N(c2ccccc2)C1` (stereo not drawn) the survival was inactive: 78%.
`COc1cccc(OC)c1C(=O)Nc1ccc2c(c1)N(C(C)=O)CCC2` was tested, and the survival was inactive: 74%.
With `Cc1ccc(NC(=O)CCC(=O)N2Cc3ccccc3Oc3ncccc32)cc1` the survival was inactive: 22%.
In the case of `COc1ccc(NC(=O)Cn2c(SCc3ccc(C)cc3)nc3cccnc32)c(OC)c1`, the survival is reported as inactive: 85%.
For `CC1=NNC(=O)C1CC(=O)N/N=C/C=C/c1ccccc1` (stereo not drawn), the survival was inactive: 104%.
In the case of `COc1ccc(-c2cnc(C)o2)cc1S(=O)(=O)Nc1ccc(C)c(N(C)C)c1`, the survival is reported as inactive: 128%.
In the case of `O=C(CC1(c2ccc(Cl)cc2)C(=O)c2ccccc2C1=O)N1CCOCC1`, the survival is reported as inactive: 111%.
`O=C1CC(c2ccc(Cl)cc2)Sc2nc(-c3ccc(F)cc3)nn21` (stereo not drawn) was tested, and the survival was inactive: 78%.
For `CCOc1ccc(CNS(=O)(=O)c2cc(-c3cc(C)no3)ccc2C)cc1OC`, the survival was inactive: 73%.
With `CNc1cc(=O)n(C)c(=O)[nH]1` the survival was inactive: 107%.
For `CCc1ccc(-n2c(=O)c3c4c(sc3n(CC(=O)NC(C)CC)c2=O)CCCC4)cc1` (stereo not drawn), the survival was inactive: 97%.
In the case of `Cn1c(=O)[nH]c2cc(-c3noc(-c4ccc(F)cc4)n3)ccc21`, the survival is reported as inactive: 131%.
With `CCn1c(=O)cc(SCC(=O)NCCc2ccc(OC)cc2OC)c2ccccc21` the survival was inactive: 66%.
In the case of `COCCCNC(=O)CSc1nc(-c2ccccc2)[nH]c1-c1ccc(C)cc1`, the survival is reported as inactive: 83%.
`CCc1cnc2c(c1SCC(=O)Nc1ccc(C)cc1C)c(=O)n(C)c(=O)n2C` was tested, and the survival was inactive: 68%.
In the case of `CCCn1c(=O)c2sccc2n2c(CCCC(=O)Nc3cccc(CC)c3)nnc12`, the survival is reported as inactive: 97%.
`CCn1c(Cc2ccccc2)nnc1SCC(=O)Nc1ccccc1` was tested, and the survival was inactive: 94%.
In the case of `Cc1ccc(CCNc2nc3c(S(=O)(=O)c4ccc(C)cc4)nnn3c3ccsc23)cc1`, the survival is reported as inactive: 101%.
`CC(C)c1ccc(NC(=O)c2ccc(NC(=O)CCS(=O)(=O)c3cccs3)cc2)cc1` was tested, and the survival was inactive: 81%.
For `Cc1ccc(-n2ncc3c(NCCCc4ccccc4)ncnc32)cc1C`, the survival was inactive: 63%.
For `CC1(C)CC(=NNC(=O)c2n[nH]c3c2CCC3)CC(C)(C)N1`, the survival was inactive: 102%.
With `COc1cc(CNC(=O)c2cc3n(n2)CCCN(Cc2ccc(C)cc2)C3=O)cc(OC)c1OC` the survival was inactive: 49%.
For `Cc1c(NC(=O)c2sc3c([N+](=O)[O-])cccc3c2Cl)cccc1-c1nc2ccccc2o1`, the survival was inactive: 73%.
For `Cc1ccc(-c2c3c(=O)n(C)c(=O)n(C)c3c3c(C(F)(F)F)nc4ccccc4n23)cc1`, the survival was inactive: 72%.
With `CCOC(=O)c1[nH]c(C)c(CCC(=O)Nc2ccc(N(CC)CC)cc2C)c1C` the survival was inactive: 77%.
`CCS(=O)(=O)N1CC(=O)N(c2cccc(C)c2C)C(C)(C(=O)NC2CCCCC2)C1` (stereo not drawn) was tested, and the survival was inactive: 89%.
For `CCc1ccc(CNC(=O)CCN2C(=O)COc3ccccc32)cc1`, the survival was inactive: 87%.
With `Cc1cc(C)cc(NC(=O)Cn2nnc(C(=O)Nc3cc(C)cc(C)c3)c2N)c1` the survival was inactive: 98%.
In the case of `CC(C)CCNC(=O)c1cc2sccc2n1Cc1ccc(F)cc1`, the survival is reported as inactive: 124%.
In the case of `Cc1nc(-c2ccc(F)cc2)sc1CCNC(=O)c1ccco1`, the survival is reported as inactive: 136%.
In the case of `CSc1ccc(CCNC(=O)C(C)n2c(C)c3cnn(-c4ccccc4)c(=O)c3c2C)cc1` (stereo not drawn), the survival is reported as inactive: 78%.
`CN1c2ccccc2Oc2nnc(N3CCN(Cc4ccccc4)CC3)cc21` was tested, and the survival was inactive: 110%.
In the case of `COc1cc(NC(=O)Cn2c(C)cc3ccccc3c2=O)cc(OC)c1OC`, the survival is reported as inactive: 68%.
With `COc1cc(OC)cc(C(=O)Nc2c(C(=O)Nc3ccc(F)cc3)oc3ccccc23)c1` the survival was inactive: 57%.
`COC(=O)c1cc2oc(C)cc2n1CC(=O)Nc1ccc(C)cc1C` was tested, and the survival was inactive: 90%.
With `CC(=O)Nc1cc(C(=O)NCc2ccc(F)cc2Cl)ccc1Sc1ccc(Cl)cc1` the survival was inactive: 126%.
`O=C(Cn1c(=O)n(Cc2ccccc2)c(=O)c2oc3ccccc3c21)Nc1ccc(Cl)cc1` was tested, and the survival was inactive: 56%.
For `Cc1ccc(/C=C/c2onc(C)c2S(=O)(=O)N2CCC(C(=O)N3CCOc4ccccc43)CC2)cc1`, the survival was inactive: 119%.
For `COc1ccc(CNC(=O)CCCc2cn(C)c3ccccc23)c(OC)c1`, the survival was inactive: 112%.
`O=C(CC(c1ccccc1)c1cc(Br)ccc1O)NCC1(c2ccccc2)CCCC1` (stereo not drawn) was tested, and the survival was inactive: 63%.
